In the supplement of paper PMC10126150:
Values marked as one replicate rest on one cluster of the flow cell; about a third of the high ones do not repeat.

Tested on: ATP
Experiment: switch fluorescence ratio, 500 uM ATP over buffer (Cy3 cluster intensity, sum of 5 cycles each) (fold (ratio)); higher = stronger signal-on switching upon ATP binding; sequences stand for … in TCGTCGGCAGCGTCAGATGTGTATAAGAGACAGTTTTTTTTTTTTTTTTTTTTTTTTT…TC
Conditions: aptamer strand: ATP DNA aptamer (quencher-CACCTGGGGGAGTATTGCGGAGGAAGG + anchor), 100 nM annealed; ATP concentration: 500 uM; one replicate
Procedure, shortened: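 Exposure to 500 uM ATP lasted 15 min at 22 °C before imaging, and a selection-buffer image was taken beforehand, for Cy3-labelled switching-strand clusters on a modified Illumina MiSeq flow-cell annealed to 100 nM quencher-labelled ATP aptamer. Five buffer/ATP cycles were run with NaOH stripping and re-annealing between them. The fluorescence ratio per cluster is summed target-cycle over summed buffer-cycle Cy3 intensity, averaged per switch-domain sequence. Clusters outside 100-1000 RFU were excluded.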

CGTCTAGTTT
switch fluorescence ratio: 0.991

TGACAGAACC
switch fluorescence ratio: 1.08

CCACACAGGA
switch fluorescence ratio: 1.05

ACAGTCCCTT
switch fluorescence ratio: 1.02

TCGCCAGTAT
switch fluorescence ratio: 0.972

GGAATTTGTA
switch fluorescence ratio: 1.04

AAGTCGTGAA
switch fluorescence ratio: 1

GAATTCGAAG
switch fluorescence ratio: 0.99

GTTTTCATAG
switch fluorescence ratio: 1.03

CCGAAGACAT
switch fluorescence ratio: 2.94

AGTGCGACGG
switch fluorescence ratio: 1.03

TAAATCACTC
switch fluorescence ratio: 1.31

GTCCTTAAAA
switch fluorescence ratio: 0.972

TTCGGAGAGC
switch fluorescence ratio: 0.945

ATAGAGTCAC
switch fluorescence ratio: 1.01

CTGGGTGCTC
switch fluorescence ratio: 1.08

CGGTTTGTGA
switch fluorescence ratio: 0.99

GAACTCTTGC
switch fluorescence ratio: 1.13

GTTATTGTCG
switch fluorescence ratio: 1.09

CGGCTTAATG
switch fluorescence ratio: 0.984

TGTATGACT
switch fluorescence ratio: 1

ATCCCTTAAG
switch fluorescence ratio: 0.978

CCGGCGCTTG
switch fluorescence ratio: 1.7

ATAAGACTAT
switch fluorescence ratio: 0.974

AAAGATCTTA
switch fluorescence ratio: 0.957

TTGTACTTAA
switch fluorescence ratio: 1.11

TATCACAGCT
switch fluorescence ratio: 1.04

ACACCGAAGA
switch fluorescence ratio: 1.07

GGTAAGCCT
switch fluorescence ratio: 1.06

CTACTGTCTG
switch fluorescence ratio: 1.01

CCAGTCCCAT
switch fluorescence ratio: 1.08

GTTTGGTGCA
switch fluorescence ratio: 0.977

TAGCGGAGAC
switch fluorescence ratio: 1.07

AGGGAGTCAT
switch fluorescence ratio: 0.973

GATCCCAGGT
switch fluorescence ratio: 3.11

GCAGGTCCAG
switch fluorescence ratio: 1.08

AGATTCCTCG
switch fluorescence ratio: 1.11

ACTATATACT
switch fluorescence ratio: 1.13

GATAGAGACA
switch fluorescence ratio: 0.989

TGACACGTCG
switch fluorescence ratio: 0.945

GCTCCCGATG
switch fluorescence ratio: 1.93

TTTACCGGGT
switch fluorescence ratio: 0.994

GGGGAGGTTA
switch fluorescence ratio: 1

TTTTCTCAAT
switch fluorescence ratio: 1

TATAGGATCA
switch fluorescence ratio: 1.03

TTCTCATGTA
switch fluorescence ratio: 0.944

CAATTGTTAA
switch fluorescence ratio: 0.992

TCTGGCTTTG
switch fluorescence ratio: 1

AATCCCAGTG
switch fluorescence ratio: 2.1

TAAGCAGCA
switch fluorescence ratio: 1.03

CAAGTTGGTG
switch fluorescence ratio: 1

TCCTGCGAAC
switch fluorescence ratio: 3.58

TCTTACTTAT
switch fluorescence ratio: 0.961

AGGACCTTGT
switch fluorescence ratio: 0.99

TAACTTTATG
switch fluorescence ratio: 0.969

CTCGGCACTT
switch fluorescence ratio: 1.56

CGAACCCTGG
switch fluorescence ratio: 1.48

GCTTTCTCTA
switch fluorescence ratio: 0.992

TGCCACTTTT
switch fluorescence ratio: 0.967

TTGCTTTAGG
switch fluorescence ratio: 1.02

ATATATGTTA
switch fluorescence ratio: 1.01

CACTTAACAC
switch fluorescence ratio: 1.18

CGAGTTCAGA
switch fluorescence ratio: 1.02

CACGTCTGT
switch fluorescence ratio: 0.986

TAGTCTACT
switch fluorescence ratio: 1.05

CCGGATGAGG
switch fluorescence ratio: 0.987

CTGCTATTAG
switch fluorescence ratio: 1.11

CTGAAGCGCT
switch fluorescence ratio: 1.04

GATTGTCGCG
switch fluorescence ratio: 0.989

AGTCGTTTGA
switch fluorescence ratio: 1.06

GCAGATGTAG
switch fluorescence ratio: 0.994

CAAGTCTCCG
switch fluorescence ratio: 1.05

ACTTATTCCT
switch fluorescence ratio: 1.02

GAAAAGGGGC
switch fluorescence ratio: 1.06

GGCGACATCG
switch fluorescence ratio: 0.98

GACCGGGCCA
switch fluorescence ratio: 0.975

TACTTATACT
switch fluorescence ratio: 1.08

CTTCGAATCA
switch fluorescence ratio: 1

CCTTCATTTT
switch fluorescence ratio: 1

AGCGGTGGGT
switch fluorescence ratio: 1.02

ACCGATCCCC
switch fluorescence ratio: 1.19

ACGTAGAGTG
switch fluorescence ratio: 1.05

AGGCCCATTA
switch fluorescence ratio: 0.981

GCCGTGGCT
switch fluorescence ratio: 1.05

GGGCTACCGA
switch fluorescence ratio: 0.988

ATTGCCGCGT
switch fluorescence ratio: 1

TGGGCTGC
switch fluorescence ratio: 1.04

GACTTAAGGA
switch fluorescence ratio: 0.958

ATAATCTGTA
switch fluorescence ratio: 0.974

AGGGAGGCCC
switch fluorescence ratio: 1.04

GGTTTTACCG
switch fluorescence ratio: 0.993

CCTCGGGAAG
switch fluorescence ratio: 1.21

CGGCCGCGG
switch fluorescence ratio: 0.983

TTTTATATTC
switch fluorescence ratio: 0.963

GCGGCGGCTA
switch fluorescence ratio: 1

GGTTCATCGC
switch fluorescence ratio: 1.04

GGGTGCTTTC
switch fluorescence ratio: 0.927

CGGAGCCTC
switch fluorescence ratio: 1.72

CCTTTTGACA
switch fluorescence ratio: 1

TGGTTAACTC
switch fluorescence ratio: 0.963

AGTGTACGCT
switch fluorescence ratio: 0.981
